The other results are listed elsewhere or left out. Single values are uncertain, as repeats are few or missing.
The compounds below were run on SkMel30 (assay: cell count relative to DMSO control; melanoma cells; higher = more viable cells). Conditions: library dose: low library concentration; 72 h.
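Further: cell number obtained by counting DAPI-stained nuclei in high-throughput microscope images with image analysis software, screen run in 1,536-well plates.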

SMILES	cell count [%]
C[C@]12O[C@H](C[C@]1(O)CO)n1c3ccccc3c3c4c(c5c6ccccc6n2c5c31)CNC4=O [Lestaurtinib] + CNC(=O)c1cc(Oc2ccc(NC(=O)Nc3ccc(Cl)c(C(F)(F)F)c3)cc2)ccn1 [sorafenib] (first compound 0.004 µM, partner dose 0.4 µM)	96.5
N.N.[Cl][Pt][Cl] [cisplatin] + CO[C@H]1C[C@@H]2CC[C@@H](C)[C@@](O)(O2)C(=O)C(=O)N2CCCC[C@H]2C(=O)O[C@H]([C@H](C)C[C@@H]2CC[C@@H](OCCO)[C@H](OC)C2)CC(=O)[C@H](C)/C=C(\C)[C@@H](O)[C@@H](OC)C(=O)[C@H](C)C[C@H](C)/C=C/C=C/C=C/1C [everolimus] (first compound 1.6 µM, partner dose 0.02 µM)	61.3
C[C@]12O[C@H](C[C@]1(O)CO)n1c3ccccc3c3c4c(c5c6ccccc6n2c5c31)CNC4=O [Lestaurtinib] + C=CCNC1=C2C[C@@H](C)C[C@H](OC)[C@H](O)[C@@H](C)/C=C(\C)[C@H](OC(N)=O)[C@@H](OC)/C=C\C=C(/C)C(=O)NC(=CC1=O)C2=O [Tanespimycin] (first compound 0.004 µM, partner dose 0.002 µM)	103
C[C@]12O[C@H](C[C@]1(O)CO)n1c3ccccc3c3c4c(c5c6ccccc6n2c5c31)CNC4=O [Lestaurtinib] + COc1ccc(Cl)c(Nc2nc3ccccc3nc2NS(=O)(=O)c2cccc(NC(=O)C(C)(C)N)c2)c1 [XL147] (first compound 0.004 µM, partner dose 0.8 µM)	87.6
C[C@]12O[C@H](C[C@]1(O)CO)n1c3ccccc3c3c4c(c5c6ccccc6n2c5c31)CNC4=O [Lestaurtinib] + CCN(CC)CCNC(=O)c1c(C)[nH]c(/C=C2\C(=O)Nc3ccc(F)cc32)c1C [sunitinib] (first compound 0.004 µM, partner dose 0.4 µM)	73.1
C[C@]12O[C@H](C[C@]1(O)CO)n1c3ccccc3c3c4c(c5c6ccccc6n2c5c31)CNC4=O [Lestaurtinib] + CS(=O)(=O)c1ccc(C(=O)Nc2ccc(Cl)c(-c3ccccn3)c2)c(Cl)c1 [vismodegib] (first compound 0.004 µM, partner dose 1 µM)	90.9
C[As](C)SC[C@H](NC(=O)CC[C@H](N)C(=O)O)C(=O)NCC(=O)O [Darinaparsin] + Cn1cc(/C=C2\C(=O)Nc3cccnc32)c2ccccc21 [GW441756] (first compound 0.4 µM, partner dose 0.4 µM)	73.3
C[C@]12O[C@H](C[C@]1(O)CO)n1c3ccccc3c3c4c(c5c6ccccc6n2c5c31)CNC4=O [Lestaurtinib] + CC(=O)c1c(C)c2cnc(Nc3ccc(N4CCNCC4)cn3)nc2n(C2CCCC2)c1=O [palbociclib] (first compound 0.004 µM, partner dose 0.04 µM)	80.3
C[C@]12O[C@H](C[C@]1(O)CO)n1c3ccccc3c3c4c(c5c6ccccc6n2c5c31)CNC4=O [Lestaurtinib] + Nc1nc(F)nc2c1ncn2[C@@H]1O[C@H](CO)[C@@H](O)[C@@H]1O [fludarabine] (first compound 0.004 µM, partner dose 0.2 µM)	20.7
Cn1cc(C2=C(c3cn(C4CCN(Cc5ccccn5)CC4)c4ccccc34)C(=O)NC2=O)c2ccccc21 [Enzastaurin] + C[C@]12O[C@H](C[C@]1(O)CO)n1c3ccccc3c3c4c(c5c6ccccc6n2c5c31)CNC4=O [Lestaurtinib] (first compound 0.8 µM, partner dose 0.004 µM)	97
C[C@]12O[C@H](C[C@]1(O)CO)n1c3ccccc3c3c4c(c5c6ccccc6n2c5c31)CNC4=O [Lestaurtinib] + CS(=O)(=O)CCNCc1ccc(-c2ccc3ncnc(Nc4ccc(OCc5cccc(F)c5)c(Cl)c4)c3c2)o1 [lapatinib] (first compound 0.004 µM, partner dose 0.8 µM)	92.8
C[C@]12O[C@H](C[C@]1(O)CO)n1c3ccccc3c3c4c(c5c6ccccc6n2c5c31)CNC4=O [Lestaurtinib] + Clc1ccc(Nc2nnc(Cc3ccncc3)c3ccccc23)cc1 [vatalanib] (first compound 0.004 µM, partner dose 2 µM)	95.7
C[C@]12O[C@H](C[C@]1(O)CO)n1c3ccccc3c3c4c(c5c6ccccc6n2c5c31)CNC4=O [Lestaurtinib] + Cc1cc(Nc2cc(N3CCN(C)CC3)nc(/C=C/c3ccccc3)n2)n[nH]1 [ENMD2076] (first compound 0.004 µM, partner dose 0.04 µM)	84.6
C[C@]12O[C@H](C[C@]1(O)CO)n1c3ccccc3c3c4c(c5c6ccccc6n2c5c31)CNC4=O [Lestaurtinib] + C#Cc1cccc(Nc2ncnc3cc(OCCOC)c(OCCOC)cc23)c1 [erlotinib] (first compound 0.004 µM, partner dose 0.8 µM)	79.7
C[C@]12O[C@H](C[C@]1(O)CO)n1c3ccccc3c3c4c(c5c6ccccc6n2c5c31)CNC4=O [Lestaurtinib] + Nc1ncn([C@H]2C[C@H](O)[C@@H](CO)O2)c(=O)n1 [decitabine] (first compound 0.004 µM, partner dose 0.1 µM)	73.9
C[C@]12O[C@H](C[C@]1(O)CO)n1c3ccccc3c3c4c(c5c6ccccc6n2c5c31)CNC4=O [Lestaurtinib] + COCC[n+]1c2c(n(Cc3cnccn3)c1C)C(=O)c1ccccc1C2=O [YM155] (first compound 0.004 µM, partner dose 0.0004 µM)	116
C[As](C)SC[C@H](NC(=O)CC[C@H](N)C(=O)O)C(=O)NCC(=O)O [Darinaparsin] + COC(=O)c1sccc1S(=O)(=O)Nc1ccc(Nc2ccccc2)cc1OC [GSK0660] (first compound 0.4 µM, partner dose 1 µM)	79
C[C@]12O[C@H](C[C@]1(O)CO)n1c3ccccc3c3c4c(c5c6ccccc6n2c5c31)CNC4=O [Lestaurtinib] + C[C@]1(c2nc3c(C(N)=O)cccc3[nH]2)CCCN1 [Veliparib] (first compound 0.004 µM, partner dose 1.4 µM)	87.5
C[As](C)SC[C@H](NC(=O)CC[C@H](N)C(=O)O)C(=O)NCC(=O)O [Darinaparsin] + O=C(Oc1ccc([N+](=O)[O-])cc1)N1CCC(C(O)(c2ccc3c(c2)OCO3)c2ccc3c(c2)OCO3)CC1 [JZL184] (first compound 0.4 µM, partner dose 1 µM)	87.7
